Results as given in US10299477B2 (priority 2015, dated 2019).

Test system: Phytophthora infestans
Assay type: in vivo
Settings: evaluated 5-10 days after inoculation; for Test F (control value class, late blight on tomato): 250 ppm, sprayed 2.5 ml/pot before inoculation; for Test F (control value class): Late blight on tomato, 250 ppm spray, 2.5 ml/pot

Compound	Test F (control value class, late blight on tomato)	Test F (control value class)
CCn1c(-c2c(F)cc(C)cc2F)c(-c2cc(F)ccc2Cl)cc(Br)c1=O [Compound 709]	L (L shows 50% or less of control values)	
CCn1c(-c2c(F)cc(C)cc2F)c(-c2cc(F)ccc2Cl)cc(C)c1=O [Compound 710]	L (L shows 50% or less of control values)	
CCn1c(-c2c(F)cc(OC)cc2F)c(-c2cccc(F)c2C)cc(Br)c1=O [Compound 711]	L (L shows 50% or less of control values)	
CCOc1cc(F)c(-c2c(-c3cccc(F)c3C)cc(Br)c(=O)n2CC)c(F)c1 [Compound 712]	L (L shows 50% or less of control values)	
CCOc1cc(F)c(-c2c(-c3cccc(F)c3C)cc(C)c(=O)n2CC)c(F)c1 [Compound 713]	L (L shows 50% or less of control values)	
CCn1c(-c2c(F)cc(OC)cc2F)c(-c2cc(F)cc(F)c2Cl)cc(C)c1=O [Compound 714]	L (L shows 50% or less of control values)	
CCn1c(-c2c(F)cc(F)cc2F)c(-c2ccccc2Cl)ccc1=O [Compound 715]	L (L shows 50% or less of control values)	
CCn1c(-c2c(F)cc(OC)cc2F)c(-c2cc(OC)cc(OC)c2Cl)ccc1=O [Compound 716]	L (L shows 50% or less of control values)	
COc1cc(F)c(-c2c(-c3cc(F)cc(F)c3Cl)cc(Br)c(=O)n2C)c(F)c1 [Compound 717]	L (L shows 50% or less of control values)	
CCn1c(-c2c(F)cc(OC)cc2F)c(-c2ccccc2Cl)ccc1=O [Compound 718]	L (L shows 50% or less of control values)	
COc1ccc(Cl)c(-c2ccc(=O)n(C#N)c2-c2c(F)cccc2F)c1 [Compound 719]	L (L shows 50% or less of control values)	
Cn1c(-c2c(F)cc(F)cc2F)c(-c2ccccc2Cl)cc(Br)c1=O [Compound 720]	L (L shows 50% or less of control values)	
COc1cc(F)c(-c2c(-c3cc(OC)ccc3Cl)ccc(=O)n2C)c(F)c1 [Compound 721]	L (L shows 50% or less of control values)	
COc1cc(F)c(-c2c(-c3cc(OC)ccc3Cl)cc(Cl)c(=O)n2C)c(F)c1 [Compound 722]	L (L shows 50% or less of control values)	
COc1cc(F)c(-c2c(-c3cc(OC)ccc3Cl)cc(Br)c(=O)n2C)c(F)c1 [Compound 723]	L (L shows 50% or less of control values)	
COc1cc(F)c(-c2c(-c3cc(OC)ccc3Cl)cc(C)c(=O)n2C)c(F)c1 [Compound 724]	L (L shows 50% or less of control values)	
COc1ccc(Cl)c(-c2cc(Br)c(=O)n(C)c2-c2c(F)cc(F)cc2F)c1 [Compound 725]	L (L shows 50% or less of control values)	
COc1ccc(-c2ccc(=O)n(C)c2-c2c(F)cc(F)cc2F)c(Cl)c1 [Compound 756]		L (L shows 50% or less of control values)
Cn1c(-c2c(F)cc(F)cc2F)c(-c2cc(F)ccc2Cl)cc(Br)c1=O [Compound 757]		L (L shows 50% or less of control values)
Cc1cc(-c2cc(F)ccc2Cl)c(-c2c(F)cc(F)cc2F)n(C)c1=O [Compound 758]		H (H shows more than 50% of control values)
COc1cc(F)c(-c2c(-c3cc(F)ccc3Cl)cc(C)c(=O)n2C)c(F)c1 [Compound 759]		L (L shows 50% or less of control values)
COc1cc(F)c(-c2c(-c3cc(F)ccc3Cl)ccc(=O)n2C)c(F)c1 [Compound 760]		L (L shows 50% or less of control values)
COc1cc(F)c(-c2c(-c3cc(F)ccc3Cl)cc(Cl)c(=O)n2C)c(F)c1 [Compound 761]		L (L shows 50% or less of control values)
